Experimental data: publication PMC12040169 (PLOS Biology, 2025)
Some of the results follow.

What follows are compounds tested on T1, C. trachomatis L2/434/Bu expressing GFP (CTL2-GFP). Settings: total inclusion area; 28.5 h, 10 µM; inhibitor.
T1 construct: L2/434/Bu GFP intracellular growth in HeLa cells
Parameters: species or system HeLa; C. trachomatis total inclusion area by high-content imaging, normalised to DMSO
How it was run: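 High-content imaging followed the bulk GFP/resorufin measurement: fixed, Hoechst-stained cells were scored for GFP inclusions and host nuclei per well. Total inclusion area and count served as growth proxies, nuclei number as the viability proxy. MIC calculation matched the bulk assay.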

Compound	% of control remaining
N[C@H]1CO[C@H]2[C@@H]1OC[C@@H]2n1cc(-c2ccccc2)nn1 [CBK289502]	112.816
CC(C)N1CCCC[C@H]2CN(C(=O)C3OCCc4ccccc43)C[C@H]21 (some centres unmarked) [CBK285511]	91.4655
CCCS(=O)(=O)N1CCC2(CCCN(Cc3cccc(F)c3F)C2=O)C1 (centres unmarked) [CBK306694]	56.5821
O=C(Cc1c[nH]c2ccccc12)N1CCC2(CCCN(Cc3cc(=O)[nH]c(=O)[nH]3)C2)C1 (centres unmarked) [CBK132049]	77.2689
Cc1n[nH]c(O)c1C(c1ccc(OC(=O)c2c(F)cccc2F)cc1)c1c(C)n[nH]c1O [CBK265136]	131.121
COc1ccccc1-c1cc(C(=O)NCCCN2CCOCC2)c2ccccc2n1 [CBK267780]	101.317
Cc1ccc(Nc2cncc(-c3ccc(O)cc3)n2)cc1Cl [CBK107802]	74.9792
O=C(Oc1cccc2cnccc12)c1ccccc1 [CBK022889C]	38.1732
CC(=O)N1CCc2c([nH]c3ccc(Br)cc23)C12CCN(CCCC#N)CC2 [CBK039724]	59.851
OCCN(Cc1cccnc1)Cc1cccn1-c1ccccc1F [CBK283019]	91.6503
O=C(Nc1cccc(C(F)(F)F)c1)c1cnsn1 [CBK018923]	70.8133
COc1ccc(F)c(C2NC(=O)CCC2N)c1 (centres unmarked) [CBK282905]	85.5794
COc1ccc(OCCn2c(C(C)O)nc3ccccc32)cc1 (centres unmarked) [CBK269905]	86.1385
COc1ccc(-c2cc(C(=O)NCc3cccnc3)c3cc(Br)ccc3n2)cc1 [CBK293958]	106.293
Cc1cc(C)n(C)c(=O)c1C(=O)NCCCc1ccc(Cl)cc1 [CBK281566]	121.253
Cc1ncc(C(=O)NC2(c3ccccc3F)CCCC2)c(C)n1 [CBK283274]	101.167
Cc1cc(C(=O)CSc2nnc(N3CCCC3)n2C2CC2)c(C)n1C [CBK306051]	86.5467
CS(=O)(=O)c1ccc(-c2ccc(N)c3ccccc23)cc1 [CBK084326]	83.4777
O=C(Nc1ccc(-c2ccc(NC(=O)c3ccncc3)cc2)cc1)c1ccncc1 [CBK262321]	92.6875
CN(C(=O)Cn1cccc(C(=O)NCC(C)(C)c2ccc(F)cc2)c1=O)C1CCCCC1 [CBK286112]	107.553
Cc1cccc(C)c1NC(=O)C(=O)NCCCN1CCOCC1 [CBK264850]	121.301
Nc1nc(O)c2c(n1)NC1(CCC1)[C@@H]1C[C@@H](O)[C@@H](O)[C@H]21 [CBK303248]	84.562
CC(C)Nc1cc(SCCN(C)C)ncn1 [CBK105616]	96.6716
O=C(N[C@@H](Cn1cc(Cl)c(=O)[nH]c1=O)C(=O)O)C1CC1 [CBK289649]	99.6305
Cc1ccc(NC(=O)/C=C/C(=O)O)c(NC(=O)c2ccccc2)c1 [CBK286563]	111.413
CNC(=O)C1(Cc2ccccc2-c2cccc(F)c2)CCN(C(=O)Cc2ccccc2)CC1 [CBK285692]	108.994

Compound	% of control remaining
CCCC(=O)NCC1Cc2cc(F)cc(-c3ccc(C(C)=O)s3)c2O1 (centres unmarked) [CBK306945]	91.636
Fc1ccccc1CN(CCCn1ccnc1)CC1CCOC1 (centres unmarked) [CBK283031]	96.1643
CC(=O)C(Sc1ccc2nnc(-c3ccc(C)cc3)n2n1)C(C)=O [CBK287525]	97.5991
Cn1ccnc1SCC(=O)Nc1ccc(S(N)(=O)=O)cc1 [CBK263190]	95.8447
O=C(CN1C(=O)N2CCCN=C2c2ccc(Cl)cc21)N1CCCC1 [CBK284387]	88.2841
Cn1cc(C2CCCN2C(=O)Cc2csc3ccccc23)cn1 (centres unmarked) [CBK305066]	65.8651
Cc1noc(C)c1NC(=O)c1ccccn1 [CBK200299]	81.1901
CS(=O)(=O)c1ncc(Cl)c(C(=O)N(Cc2ccccc2)c2ccccn2)n1 [CBK269489]	24.6989
COc1ccc2c(c1)c1nc(C)sc1n2CCN1CCCCC1 [CBK269909C]	73.8225
CCc1ccc(OC)c(S(=O)(=O)N2CCOCC2)c1 [CBK268214]	88.4605
Cc1nnc2sc(-c3ccc(CNC(=S)NC(=O)c4ccccc4[N+](=O)[O-])cc3)nn12 [CBK268588]	103.078
CCC(CC)C(=O)N1CCC(c2nnc3n2CCCCC3)CC1 [CBK284614]	99.5112
COc1ccc(-c2nn(-c3ccccc3)cc2/C=C2\SC(N3CC(C)OC(C)C3)=NC2=O)cc1F (centres unmarked) [CBK265613]	99.4319
O=C(NC(=S)Nc1ccc(-c2ccc(CO)o2)cc1)c1ccc2c(c1)OCCO2 [CBK269038]	89.0271
C/C(=C(/C(=O)N(N)c1nc2ccccc2s1)C(=O)C(F)(F)F)N1CCC(C(N)=O)CC1 [CBK265758]	92.716
CC(C)c1cc(C(=O)N2CCN(C)C(=O)C2Cc2ccccc2-c2ccc(F)cc2)[nH]n1 (centres unmarked) [CBK285833]	120.074
Cc1ccc(C(=O)NCc2ccc3c(c2)CCO3)c(N2CCOCC2)n1 [CBK106202]	79.9929
Nc1nnc(SC/C=C/CSc2nnc(N)s2)s1 [CBK263092]	97.8023
O=S(=O)(NCCCn1ccnc1)c1cc(Cl)ccc1Cl [CBK261767]	101.679
Cc1cc(C)n(CCCC(=O)N2C[C@H]3CCc4c[nH]nc4[C@H]3C2)n1 [CBK284573]	62.7867
O=C(Cn1c(=O)n(Cc2cccs2)c2ncccc21)N1CCCC1 [CBK283894]	65.9331
COCCN1C(=O)C2(CC(=O)N(CCc3scnc3C)C2=O)c2cc(Cl)ccc21 (centres unmarked) [CBK075321]	89.2587
O=[N+]([O-])c1ccc(-c2ccc(/C=N/Nc3nnc4c(n3)[nH]c3ccccc34)o2)cc1 [CBK262029]	98.3959
C#CCN(C1CCc2ccccc21)S(=O)(=O)c1cc(C(N)=O)n(C)c1 (centres unmarked) [CBK304287]	24.2317
CC(C)[C@@H](CO)Nc1cncc(-c2cccnc2)n1 [CBK065467]	73.821
O=C(c1ccccc1)N1C[C@@H](c2ccsc2)[C@@H]2CN(Cc3ccccc3)CC[C@@H]21 [CBK285602]	84.6681

Compound	% of control remaining
COc1cccc(C(=O)COC(=O)c2ccc3c(c2)C(=O)N(c2ccc(C(C)=O)cc2)C3=O)c1 [CBK264872]	105.472
O=C(CCCn1ccnc1)NC(Cc1cccs1)c1nccs1 (centres unmarked) [CBK285094]	99.0552
O=S(=O)(Cc1ccc(Cl)cc1)NCCCn1ccnc1 [CBK268372]	80.1557
COc1ccc(-c2cc(C(=O)NCC(F)(F)F)cnc2-c2ccc(Cl)cc2)cn1 [CBK036698]	88.0038
COc1ccc(C(=O)N2CCC3(CCN(Cc4ccc(OC(F)(F)F)cc4)C3)C2)cc1OC (centres unmarked) [CBK132148]	76.8469
CC(C)(C)OC(=O)N1CCC[C@]2(CCC(=O)N2)[C@H]1c1cccc(F)c1 [CBK283463]	129.766
Cc1nc(C2CCCN(C(=O)c3cnn(C)c3)C2)c2sccn12 (centres unmarked) [CBK285236]	110.336
Cc1ccc(C(=O)Nc2ccc(N3CCCCC3)c(F)c2)c(=O)n1C [CBK281390]	108.826
CC(=O)c1ccc(NC(=O)c2cccc(S(=O)(=O)N3CCCCC3)c2)cc1 [CBK263246]	96.7735
O=C(O)Cn1c2ccc(Br)cc2c2nc3ccccc3nc21 [CBK266416]	157.235
COc1cc(C(=O)NCc2c(-c3ccccc3)noc2C)cc(OC)c1OC [CBK144097]	97.0381
CCn1c(C)cc(C(=O)CSc2nnc(N3CCCC3)n2C2CC2)c1C [CBK306035]	85.0176
O=C(c1ccc(S(=O)(=O)N2CCCCC2)cc1)N1CCN(CCN2C(=O)c3cccc4cccc(c34)C2=O)CC1 [CBK262536]	99.4319
O=C1/C(=C/c2cn(Cc3cccc4ccccc34)c3ccccc23)C(O)=NN1c1ccccc1 [CBK264849]	117.063
Nc1nc2sc3c(c2cc1C(=O)N1CCOCC1)CCCC3 [CBK022399]	100.709
O=C(NC1CC1)c1ccc(-c2cnc3[nH]c(=O)n(-c4ccc5[nH]ccc5c4)c3n2)cc1 [CBK064916]	146.881
CN1CCC(CNS(=O)(=O)c2cccc3c2OCC3)CC1=O (centres unmarked) [CBK305465]	43.2454
COc1ccc(CN(C)C2CCOCC2)cc1Cn1cncn1 [CBK306728]	54.3584
O=C(CNC1Cc2ccccc2C1)Nc1ccc(Cl)cc1C(=O)c1ccccc1Cl [CBK074764]	67.5227
COc1ccc(C[C@@H]2NC(=O)[C@@H]3CN(C(=O)c4ccc(OC)cc4)CCN3C2=O)cc1 [CBK289598]	105.92
Cc1cc(C)c(CNC(=O)C2CC(=O)N(Cc3ccccn3)C2)cn1 (centres unmarked) [CBK304673]	112.331
Cc1c(C(=O)NCc2ccccn2)nnn1-c1cccc(C(F)(F)F)c1 [CBK107395]	91.3765
COc1cccc(C2(NC(=O)c3cnsc3)CCCC2)c1 [CBK283611]	119.336
COc1ccc(-n2[nH]c(C)c(Cc3c(Cl)cccc3Cl)c2=O)cc1 [CBK084521]	97.7883
CC(=O)Nc1ccc(S(=O)(=O)Nc2ccc(S(=O)(=O)Nc3ccc(C)c(C)c3)cc2)cc1 [CBK264643]	79.5823
